Measured values taken from the supplement of paper PMC12217912.
Some of the results follow. The full chains were built here from the parent and the listed change. Inactive controls read about 0.05.

B1: TEV protease; numbered along this chain (parent)
chain: MGESLFKGPRDYNPISSSICHLTNESDGHTTSLYGIGFGPFIITNKHLFRRNNGTLVVQSLHGVFKVKDTTTLQQHLVDGRDMIIIRMPKDFPPFPQKLKFREPQREERICLVTTNFQTKSMSSMVSDTSCTFPSGDGIFWKHWIQTKDGQCGSPLVSTRDGFIVGIHSASNFTNTNNYFTSVPKNFMELLTNQEAQQWVSGWRLNADSVLWGGHKVFMVKPEEPFQPVKEATQL

Variants of: B1
Assay: raw area under fraction-flipped curve 0-4 h after induction (AUC4h, not background-subtracted), DNA-recorder readout of cleavage of the substrate (dimensionless); higher = more cleavage of the substrate by the protease variant
Settings: temperature: 34 °C; time window: 0-4 h after rhamnose induction
Experimental: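 In vivo DNA recorder in E. coli TOP10(DE3) ΔrhaA at 34 °C. Each TEVp single-site mutant (parent TEVp 0) is paired with a single-site variant of the 7-mer TEVs (canonical ENLYFQ|S). The substrate sits between flexible linkers in a Bxb1-sfGFP-TEVs-SsrA fusion, so cleavage stabilises Bxb1 and speeds flipping of a recombination array, read by NGS. The value is the raw area under the fraction-flipped curve over 0-4 h after rhamnose induction (AUC4h), with ≥20 reads per time point. It is not background-subtracted; inactive controls average about 0.047.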
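Note: Bxb1 expression induced with 0.2% (w/v) L-rhamnose at OD600 near 0.5, cultures sampled hourly, flipped fraction per protease–substrate barcode pair counted by paired-end Illumina sequencing.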

| Variant | area with substrate ENLYFQC | area with substrate ENLYFQD | area with substrate ENLYFQG | area with substrate ENLYFQH | area with substrate ENLYFQI | area with substrate ENLYFQL | area with substrate ENLYFQN | area with substrate ENLYFQP | area with substrate ENLYFQR | area with substrate ENLYFQS | area with substrate ENLYFQV | area with substrate ENLYFQW | area with substrate ENLYFQE | area with substrate ENLYFQK | area with substrate ENLYFQM | area with substrate ENLYFQT | area with substrate ENLYFQY | area with substrate ENLYFQF | area with substrate ENLYFQQ |
| --- | --- | --- | --- | --- | --- | --- | --- | --- | --- | --- | --- | --- | --- | --- | --- | --- | --- | --- | --- |
| I15P | 0.084 | 0.0677 | 0.072 | 0.0555 | 0.055 | 0.0577 | 0.0703 | 0.0346 | 0.0541 | 0.0797 | 0.0534 | 0.0594 |  |  |  |  |  |  |  |
| S18Q | 0.115 | 0.0842 | 0.117 |  |  | 0.0719 | 0.0835 |  | 0.0693 | 0.117 |  |  | 0.0801 | 0.0453 | 0.0997 | 0.0724 |  |  |  |
| C20L | 0.103 | 0.0746 | 0.0674 |  |  | 0.0584 | 0.0898 |  | 0.059 | 0.101 | 0.0356 | 0.0691 | 0.0537 |  | 0.0808 | 0.0642 | 0.084 |  |  |
| L22Y | 0.0382 |  |  | 0.0504 | 0.0461 |  | 0.0487 |  | 0.0481 | 0.0519 |  |  | 0.0407 | 0.0498 |  | 0.0398 | 0.0494 | 0.0542 | 0.0472 |
| T23E | 0.0893 |  | 0.0815 | 0.0786 |  | 0.0627 | 0.0785 | 0.0605 | 0.055 | 0.0923 | 0.0516 |  | 0.0537 | 0.0777 |  | 0.063 | 0.0428 |  |  |
| D27G | 0.129 | 0.0751 | 0.0885 | 0.0872 | 0.057 | 0.0568 |  |  | 0.0439 | 0.098 |  |  |  | 0.0718 |  | 0.0633 | 0.094 | 0.0931 |  |
| D27S | 0.0949 | 0.0675 | 0.0835 | 0.0687 | 0.0539 | 0.056 |  | 0.0562 | 0.0631 | 0.0924 | 0.0652 | 0.067 |  |  | 0.0708 | 0.0508 |  |  |  |
| G28Q | 0.132 |  | 0.177 |  | 0.061 | 0.0534 | 0.0712 | 0.0539 | 0.0636 | 0.0895 | 0.0982 | 0.0635 | 0.0511 | 0.106 | 0.0735 | 0.0618 | 0.0753 |  | 0.0591 |
| H29T | 0.103 |  | 0.165 | 0.072 | 0.0573 | 0.0737 | 0.122 | 0.0688 | 0.0481 | 0.107 |  | 0.0858 |  | 0.023 | 0.0863 |  | 0.079 | 0.0636 |  |
| T30R | 0.126 |  | 0.114 | 0.105 | 0.0798 |  |  | 0.0664 |  | 0.11 | 0.056 | 0.0678 |  | 0.0637 | 0.0889 | 0.0605 | 0.074 | 0.0794 |  |
| T31V | 0.126 | 0.0429 |  | 0.0762 | 0.0548 | 0.0682 | 0.0781 | 0.0647 |  | 0.117 |  | 0.0584 |  | 0.0641 | 0.104 | 0.0703 | 0.0887 | 0.141 |  |
| G37S | 0.0858 | 0.0577 | 0.0828 | 0.0675 | 0.0749 | 0.0517 | 0.0541 |  | 0.0604 | 0.0797 | 0.0437 | 0.0548 |  | 0.0518 | 0.0617 | 0.0347 | 0.061 |  |  |
| F38K | 0.0628 | 0.0403 | 0.0672 | 0.0567 |  | 0.0386 | 0.0594 | 0.0502 | 0.041 | 0.0601 |  | 0.0593 |  | 0.0539 | 0.0503 | 0.048 | 0.0647 | 0.162 | 0.0483 |
| P40Q | 0.13 |  | 0.123 | 0.113 | 0.0488 | 0.0544 | 0.0927 | 0.0806 | 0.0608 | 0.11 | 0.0649 | 0.0541 |  | 0.0633 | 0.0729 | 0.0722 |  |  |  |
| F41Q | 0.0826 | 0.0616 | 0.0749 | 0.0516 |  | 0.0961 |  |  | 0.0571 | 0.077 | 0.0624 | 0.061 | 0.0519 | 0.027 | 0.076 | 0.0476 | 0.0549 |  |  |
| I43D | 0.06 | 0.0473 | 0.0448 | 0.0082 | 0.0399 | 0.0458 | 0.0442 | 0.0453 | 0.0405 | 0.0422 |  | 0.0415 |  | 0.0457 | 0.0397 | 0.0406 | 0.049 |  | 0.0347 |
| N45P | 0.0669 | 0.0412 | 0.094 |  | 0.0467 | 0.044 | 0.087 |  |  | 0.0816 |  |  |  | 0.0861 | 0.0693 |  | 0.0372 |  |  |
| N53D | 0.12 |  | 0.137 |  | 0.0517 |  | 0.0782 |  | 0.0671 | 0.114 | 0.0668 |  |  | 0.0589 | 0.0751 | 0.0757 | 0.0966 |  |  |
| V57S | 0.109 |  | 0.0888 |  |  | 0.0534 | 0.0914 |  | 0.0519 | 0.104 |  | 0.0536 |  |  | 0.0901 | 0.0309 | 0.0768 | 0.0739 |  |
| S60C | 0.105 |  | 0.0928 | 0.0663 | 0.0602 | 0.065 | 0.0856 | 0.0571 | 0.0578 | 0.105 |  |  |  | 0.0655 | 0.0896 | 0.0652 | 0.0807 | 0.068 | 0.0062 |
| H62Y | 0.119 | 0.078 | 0.155 |  | 0.0527 | 0.0726 | 0.0728 | 0.0516 | 0.0596 | 0.102 |  |  |  | 0.0726 | 0.121 |  | 0.0696 | 0.0693 |  |
| K66D | 0.104 | 0.0757 | 0.0703 | 0.0673 | 0.0643 | 0.0581 | 0.0571 | 0.0382 | 0.105 | 0.0975 |  | 0.0584 |  | 0.0604 | 0.0911 | 0.0595 | 0.079 |  | 0.0769 |
| V67A | 0.106 | 0.0642 | 0.063 | 0.0918 | 0.0543 | 0.0552 | 0.0741 |  | 0.0539 | 0.0944 |  | 0.0654 |  |  |  | 0.0728 | 0.0761 | 0.0905 | 0.0689 |
| K68Y | 0.141 |  | 0.113 |  | 0.077 |  |  | 0.0497 | 0.0604 | 0.0945 |  | 0.0638 |  | 0.0614 |  |  | 0.0851 |  |  |
| T70R | 0.0579 | 0.0631 | 0.0766 |  | 0.101 | 0.0638 | 0.0563 |  | 0.0556 | 0.0661 | 0.0537 |  | 0.0748 |  | 0.0745 |  | 0.062 |  |  |
| L73Q | 0.0637 | 0.0579 | 0.0578 | 0.0537 |  | 0.0501 |  | 0.046 | 0.0573 | 0.0647 | 0.0641 | 0.0456 |  | 0.0531 | 0.0586 | 0.0377 |  |  |  |
